Experimental data taken from patent US20250092146A1 (ABILITA BIO, published 2025).
Numbering of substitutions follows the chain as printed. Names and notes keep the numbering of the source. Each block holds one binder with its values, some of them ahead of it.

Tests used:
human CCR8 (hCCR8) [1] = target: T1, human CCR8 (hCCR8) (human, UniProt P51685 1-355); test: flow cytometry on HuT-78 cells, VHH-Fc fusion
T1 construct: On transfected HEK293/HEK293T cells, or naturally expressed on HuT-78 cells; also called C-C chemokine receptor type 8

human CCR8 (hCCR8) [2] = target: T1, human CCR8 (hCCR8); test: flow cytometry on HuT-78 cells, VHH-Fc fusion; normalized to VHH-1
human CCR8 (hCCR8) [3] = target: T1, human CCR8 (hCCR8); test: flow cytometry on HEK293-hCCR8 cells
human CCR8 (hCCR8) [4] = target: T1, human CCR8 (hCCR8); test: flow cytometry on HEK293-hCCR8 cells; normalized to VHH-1-Fc
human CCR8 (hCCR8) [5] = target: T1, human CCR8 (hCCR8); test: flow cytometry on HEK293-hCCR8 cells, VHH-Fc
human CCR8 (hCCR8) [6] = target: T1, human CCR8 (hCCR8); test: flow cytometry on HEK293-hCCR8 cells, VHH-Fc; normalized to wild type VHH-2-Fc
human CCR8 (hCCR8) [7] = target: T1, human CCR8 (hCCR8); test: flow cytometry on HEK293-hCCR8 cells; normalized to VHH-2-Fc

T1 sequence (P51685 whole entry, the tested form may be a part): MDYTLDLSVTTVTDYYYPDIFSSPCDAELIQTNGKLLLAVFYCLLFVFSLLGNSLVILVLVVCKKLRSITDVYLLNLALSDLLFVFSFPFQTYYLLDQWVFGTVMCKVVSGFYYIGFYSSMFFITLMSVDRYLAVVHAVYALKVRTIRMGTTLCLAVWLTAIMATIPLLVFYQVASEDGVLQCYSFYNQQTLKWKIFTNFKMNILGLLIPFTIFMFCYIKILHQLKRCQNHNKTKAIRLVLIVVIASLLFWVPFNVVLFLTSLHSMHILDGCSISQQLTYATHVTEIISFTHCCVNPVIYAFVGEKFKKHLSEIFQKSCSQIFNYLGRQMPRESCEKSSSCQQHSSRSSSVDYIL

B1: VHH-1.3-4-Fc (Fc fusion)
chain: EVQLVESGGGLVQPGGSLRLSCAASGSTSSIRTIGWYRQAPGKGRELVARFSSGGGTNYADSVKGRFTISGDNSKNTMYLQMNSLRAEDTAVYYCSARILLGTSRVDYWGQGTTVTVSS[human IgG1 Fc not given here]
notes: Against VHH-1.3 (IMGT): R38T, R108I
EC50 (human CCR8 (hCCR8) [1]): 7.68 nM
Normalized Bmax (%) (human CCR8 (hCCR8) [2]): 82.4%

B2: VHH-1.3-18-Fc (Fc fusion)
chain: B1 chain with A24V, T33G, S52I, N73K, I99R
notes: Against VHH-1.3 (IMGT): A25V, R38G, S57I, N83K
EC50 (human CCR8 (hCCR8) [1]): 0.31 nM
Normalized Bmax (%) (human CCR8 (hCCR8) [2]): 113%

B3: VHH-1.3-7-Fc (Fc fusion)
chain: B1 chain with A24V, T33R, R50H, N73K, I99R
notes: Against VHH-1.3 (IMGT): A25V, R55H, N82K
EC50 (human CCR8 (hCCR8) [1]): 0.56 nM
Normalized Bmax (%) (human CCR8 (hCCR8) [2]): 112%

B4: VHH-1.3-16-Fc (Fc fusion)
chain: B1 chain with S30T, R32V, T33R, G56S
notes: Against VHH-1.3 (IMGT): S35T, R37V, G64S, R108I
EC50 (human CCR8 (hCCR8) [1]): 3.1 nM
Normalized Bmax (%) (human CCR8 (hCCR8) [2]): 79%

B5: VHH-1.3-9-Fc (Fc fusion)
chain: B1 chain with T33R, S53G, G56S, T57I, I99R, L101V, T114Q
notes: Against VHH-1.3 (IMGT): S58G, G64S, T65I, L110V
EC50 (human CCR8 (hCCR8) [1]): 0.58 nM
Normalized Bmax (%) (human CCR8 (hCCR8) [2]): 124%

B6: VHH-1.3-12-Fc (Fc fusion)
chain: B1 chain with S27F, T33R, G56T, I99R, L101Y, T114Q
notes: Against VHH-1.3 (IMGT): S28F, G64T, L110Y
EC50 (human CCR8 (hCCR8) [1]): 1.24 nM
Normalized Bmax (%) (human CCR8 (hCCR8) [2]): 79.6%

B8: VHH-1.3-10-Fc (Fc fusion)
chain: B1 chain with E1Q, V5Q, T33R, T57I, I99R, L101V, T114Q
notes: Against VHH-1.3 (IMGT): T65I, L110V
EC50 (human CCR8 (hCCR8) [1]): 1.3 nM
Normalized Bmax (%) (human CCR8 (hCCR8) [2]): 125%

B10: VHH-1.3-14-Fc (Fc fusion)
chain: B1 chain with T33R, G56S, T57I, I99R, L101V, T114Q
notes: Against VHH-1.3 (IMGT): G64S, L110V
EC50 (human CCR8 (hCCR8) [1]): 0.9 nM
Normalized Bmax (%) (human CCR8 (hCCR8) [2]): 132%

B11: VHH-1.3-13-Fc (Fc fusion)
chain: B1 chain with A24V, T33G, S52I, I99R, T114Q
notes: Against VHH-1.3 (IMGT): A25V, R38G, S57I
EC50 (human CCR8 (hCCR8) [1]): 0.38 nM
Normalized Bmax (%) (human CCR8 (hCCR8) [2]): 91.1%

B12: VHH-1.3-11-Fc (Fc fusion)
chain: B1 chain with E1Q, V5Q, T33R, G56T, T57I, I99R, T114Q
notes: Against VHH-1.3 (IMGT): G64T
EC50 (human CCR8 (hCCR8) [1]): 0.61 nM
Normalized Bmax (%) (human CCR8 (hCCR8) [2]): 79.6%

B13: VHH-1.3-8-Fc (Fc fusion)
chain: B1 chain with T33R, G55I, I99R, L101V, T114Q
notes: Against VHH-1.3 (IMGT): G63I, L110V
EC50 (human CCR8 (hCCR8) [1]): 1.36 nM
Normalized Bmax (%) (human CCR8 (hCCR8) [2]): 63.4%

B14: VHH-1.3-5-Fc (Fc fusion)
chain: B1 chain with T33R, R50G, I99R
notes: Against VHH-1.3 (IMGT): R55G
EC50 (human CCR8 (hCCR8) [1]): 4.42 nM
Normalized Bmax (%) (human CCR8 (hCCR8) [2]): 90.1%

B15: VHH-1.3-6-Fc (Fc fusion)
chain: B1 chain with T33R, R50H, I99R
notes: Against VHH-1.3 (IMGT): R55H
EC50 (human CCR8 (hCCR8) [1]): 3.75 nM
Normalized Bmax (%) (human CCR8 (hCCR8) [2]): 97%

B17: VHH-1.3-15-Fc (Fc fusion)
chain: B1 chain with T33R, S53G, I99R
notes: Against VHH-1.3 (IMGT): S58G
EC50 (human CCR8 (hCCR8) [1]): 2.82 nM
Normalized Bmax (%) (human CCR8 (hCCR8) [2]): 107%

B18: VHH-2-Fc I36A (Fc fusion)
heavy: QVQLQESGGGLVQAGGSLRLTCAVSGSTSTANRFAWYRQAPGKQRELVAATSSRTSPNYADSVKGRFRFSRDNARSAVYLQMDNLRPEDTAVYFCQARMAMGSSQVVYWGLGTQVTVSS[human IgG1 Fc not given here]
notes: rest as VHH-2-Fc
EC50 (human CCR8 (hCCR8) [5]): 0.84 nM
% Bmax (human CCR8 (hCCR8) [6]): 50%

B19: VHH-2-Fc P61A (Fc fusion)
chain: B18 heavy with A31I, P57A
EC50 (human CCR8 (hCCR8) [5]): 1.18 nM
% Bmax (human CCR8 (hCCR8) [6]): 59%

The remaining lines, values ahead:

EC50 (human CCR8 (hCCR8) [3]): 3.29 nM
Bmax % (human CCR8 (hCCR8) [4]): 104%
B7: VHH-5-Fc (Fc fusion)
chain: QVQLQESGGGLVQAGGSLRLSCVASGSTSSIRRIGWYRQAPGKQRELVARFSSGGGTNYADFVKGRFTISGDNAKNTMYLQMNSLKPEDTAVYYCNARRLLGTSRVDYWGQGTQVTVSS[human IgG1 Fc not given here]

EC50 (human CCR8 (hCCR8) [3]): 3.1 nM
Bmax % (human CCR8 (hCCR8) [4]): 65.8%
B9: VHH-6-Fc (Fc fusion)
chain: B7 chain with N96S, V106Y

EC50 (human CCR8 (hCCR8) [3]): 4.07 nM
Bmax % (human CCR8 (hCCR8) [4]): 105%
B16: VHH-7-Fc (Fc fusion)
chain: B7 chain with S52T

EC50 (human CCR8 (hCCR8) [3]): 3.26 nM
Bmax % (human CCR8 (hCCR8) [7]): 72.1%
B20: VHH-20-Fc (Fc fusion)
chain: B18 heavy with A31I, V107D

EC50 (human CCR8 (hCCR8) [5]): 0.86 nM
% Bmax (human CCR8 (hCCR8) [6]): 76%
B21: VHH-2-Fc Y117A (Fc fusion)
chain: B18 heavy with A31I, Y108A
notes: rest as VHH-2-Fc

EC50 (human CCR8 (hCCR8) [3]): 0.66 nM
Bmax % (human CCR8 (hCCR8) [7]): 72%
B22: VHH-19-Fc (Fc fusion)
chain: B18 heavy with T30S, A31I, S103V

EC50 (human CCR8 (hCCR8) [5]): 2.47 nM
% Bmax (human CCR8 (hCCR8) [6]): 68%
B23: VHH-2-Fc R59A (Fc fusion)
heavy: B18 heavy with A31I, R54A
notes: rest as VHH-2-Fc
